# Some of the results follow. These are noisy estimates, calculated here from bound and input reads.
# Target: T1, Pho4 (S. cerevisiae) (UniProt P07270)
# T1 sequence: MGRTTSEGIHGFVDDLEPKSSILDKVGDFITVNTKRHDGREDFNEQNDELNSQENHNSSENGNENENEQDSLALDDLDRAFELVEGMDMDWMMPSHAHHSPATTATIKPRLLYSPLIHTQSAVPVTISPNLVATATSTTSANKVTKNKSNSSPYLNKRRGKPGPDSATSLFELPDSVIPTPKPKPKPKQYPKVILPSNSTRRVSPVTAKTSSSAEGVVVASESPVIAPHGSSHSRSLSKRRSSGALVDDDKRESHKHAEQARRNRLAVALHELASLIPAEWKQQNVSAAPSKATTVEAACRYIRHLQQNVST
# Assay: relative binding free energy (BET-seq); higher = weaker binding
# Conditions: reference: library average
row,Sequence,relative binding free energy [kcal/mol]
1,GTTTTCACGTGGAGCA,0.25
2,TGAATCACGTGGTCGA,0.09
3,AGTGGCACGTGCGTTG,-0.24
4,TGTAGCACGTGGAGAA,0.06
5,CAGGACACGTGATGGG,0.12
6,ATTTTCACGTGCTCTT,0.35
7,GCGGACACGTGGTTGG,0.03
8,TATAACACGTGGGTAT,-0.26
9,ATTGCCACGTGTTATT,-0.15
10,TAGAGCACGTGGCTTG,-0.2
11,TCAGTCACGTGATGGT,0.27
12,TGTAACACGTGATGCT,0.14
13,AGGGACACGTGGGGCA,-0.17
14,CGCGACACGTGGGGTG,-0.28
15,TAGTGCACGTGGGGCT,-0.19
16,AGGTGCACGTGGAGGA,0.02
17,GTAACCACGTGGGTGT,-0.01
18,GATGGCACGTGGTTTA,-0.03
19,TTGATCACGTGTTAGA,0.22
20,TGCGCCACGTGTGTTT,0.03
21,TGTTTCACGTGATGGA,0.24
22,TGTTTCACGTGTTAAG,0.25
23,TTATGCACGTGGCGGT,-0.1
24,CTTATCACGTGGGTTT,-0.07
25,TGTGTCACGTGGCAGG,0.04
26,CTTGTCACGTGGGAGT,-0.16

row,Sequence,relative binding free energy [kcal/mol]
1,ATACGCACGTGTAGTG,-0.08
2,GTTTGCACGTGATTTG,0.16
3,TCGTGCACGTGGCCGT,-0.13
4,CGCGTCACGTGTGCGG,0.06
5,AAACTCACGTGGGTGT,0.09
6,TAGGGCACGTGAGAGG,-0.01
7,TTCGTCACGTGATGAG,0.18
8,GAACGCACGTGAGGTG,0.24
9,AGTTACACGTGGGCGA,-0.11
10,GGGATCACGTGAGCGG,0.45
11,ATTTGCACGTGAAATA,0.18
12,GTGGACACGTGATAGG,0.19
13,CCGATCACGTGTTTGG,0.17
14,CGGAACACGTGATGTT,0.31
15,TGATGCACGTGTGGCA,-0.16
16,ATTGTCACGTGGGGCA,-0.05
17,GGGGACACGTGGATGG,0.08
18,GGTTGCACGTGCCGGA,0.03
19,CGCGTCACGTGTTGGG,0.01
20,TATCACACGTGGGGTC,0.02
21,CATTTCACGTGTGGGG,0.25
22,GAGGTCACGTGATGTG,0.14
23,AAAGACACGTGGGGGG,-0.08
24,TTGGTCACGTGGCCGC,0.07
25,TTTCACACGTGGGTGG,-0.02
26,TGGGGCACGTGATGCA,-0.21

row,Sequence,relative binding free energy [kcal/mol]
1,TTACGCACGTGGTATA,-0.22
2,GTTTTCACGTGTTAGA,0.26
3,TGGCTCACGTGAGCGG,0.14
4,GATGTCACGTGTTTAA,0.17
5,TAGAGCACGTGTATTA,0.06
6,ATGAGCACGTGGGTAA,-0.23
7,ATGGTCACGTGGATAG,0.18
8,TGGTTCACGTGCTGAA,0.2
9,GTGCGCACGTGTTGAG,0.03
10,CTTAGCACGTGAAGGG,0.05
11,TAGTCCACGTGGGTTT,-0.06
12,TAGGGCACGTGTTTTG,-0.12
13,GGTCGCACGTGTGTTA,0.1
14,TGGATCACGTGCGGAG,0.14
15,TCTTTCACGTGGTGGT,0.25
16,ATTGCCACGTGCTTGG,-0.01
17,CATAGCACGTGTGAAG,0.07
18,TTCTACACGTGGGGTT,-0.09
19,GCCGTCACGTGAGGTG,0.29
20,GTGGGCACGTGGATAT,-0.02
21,TAGTGCACGTGGCAAT,-0.03
22,TTTAACACGTGAGTGG,0.28
23,GCAGGCACGTGATAGT,0.03
24,TAGGTCACGTGTGCCT,0.16
25,CGGTTCACGTGTCGGG,0.24
26,TTTTGCACGTGGAGCT,0.11

row,Sequence,relative binding free energy [kcal/mol]
1,GGTAGCACGTGGACGT,0.02
2,TAGTGCACGTGTAGAT,0.13
3,CTGTACACGTGGTATT,-0.07
4,GTGTTCACGTGTTAAT,0.33
5,ACTTGCACGTGGGAGT,-0.13
6,TGATACACGTGGGTTA,-0.16
7,AGGTGCACGTGGGTTC,-0.16
8,AGAGGCACGTGGGTAA,-0.29
9,GTACACACGTGGTAGG,0.05
10,AGGCACACGTGTGGGG,0.01
11,CTGTGCACGTGAATTG,0.33
12,GATATCACGTGTAAGT,0.27
13,AGGCGCACGTGTTAGT,0
14,TATCGCACGTGAGTTT,0.04
15,CTCTTCACGTGGTTGG,0.11
16,AAGATCACGTGAGGTA,0.31
17,AAGAACACGTGGGTTA,-0.06
18,TTAGCCACGTGCGGGT,-0.18
19,GTTTACACGTGATAGG,0.42
20,TTATGCACGTGACGGG,0.02
21,GTCGTCACGTGAGAGT,0.3
22,CAGAACACGTGAGGGT,0.2
23,CATTACACGTGGTTTT,-0.01
24,AGGGCCACGTGATGTT,-0.02
25,CTTGTCACGTGTAAAT,0.13
26,GGTTGCACGTGTATCG,0.12

row,Sequence,relative binding free energy [kcal/mol]
1,TGGCGCACGTGGTCAG,-0.14
2,TTGCTCACGTGTAGGA,0.14
3,ATAAGCACGTGACGTG,0
4,TGGTGCACGTGGCGCA,-0.28
5,AAATTCACGTGGGAGG,0.15
6,GGGGGCACGTGCCCTG,-0.26
7,GGTGGCACGTGCTTGT,-0.11
8,GGTCTCACGTGTAGTA,0.26
9,TGCTACACGTGGGCTG,-0.07
10,ATTGGCACGTGCGTCG,-0.2
11,CGCGTCACGTGTGGCT,0.14
12,GGGGCCACGTGTGAAT,0.02
13,GGTAGCACGTGTGTAC,0.09
14,CGGTTCACGTGTCTGT,0.34
15,GGGGGCACGTGAGATA,0.14
16,TTGGACACGTGTGTCG,0.12
17,AATGTCACGTGGGAAA,-0.04
18,TAAATCACGTGAATGG,0.24
19,AAAATCACGTGGGTTG,0.07
20,GAGTTCACGTGAGGTC,0.47
21,GCTGGCACGTGTGTGA,0.02
22,GCTCGCACGTGATGGG,0.2
23,ATGTTCACGTGTTCAG,0.29
24,TCGAGCACGTGTGTAT,-0.07
25,ATGAGCACGTGGCAGG,-0.24
26,GGTTCCACGTGTGGGC,0.17

row,Sequence,relative binding free energy [kcal/mol]
1,TCAGACACGTGATGGT,0.25
2,GATGACACGTGTTGTT,0.13
3,GAATGCACGTGAGGGT,0.31
4,GTTTGCACGTGTTAGA,0.08
5,TGCTACACGTGCGGTG,0.07
6,TACGTCACGTGCGGTG,0.01
7,CTATGCACGTGAGAGG,0.17
8,TGCGGCACGTGTGCTT,-0.11
9,GGTTGCACGTGTTACA,-0.07
10,TGGGGCACGTGTCCTG,-0.16
11,TCGGTCACGTGTGGTC,0.18
12,TTTCACACGTGGTGTA,-0.11
13,ATCATCACGTGAGGTG,0.2
14,ATTCTCACGTGGGTCG,0.13
15,GCGTTCACGTGACGTT,0.45
16,AGTGGCACGTGCATCG,-0.1
17,GGGGGCACGTGTTTAA,-0.11
18,GGTTTCACGTGGAGCT,0.07
19,TGTGGCACGTGGGAGC,-0.22
20,TAATGCACGTGTGTAT,-0.05
21,TGTTCCACGTGGTGGA,-0.02
22,TTGGTCACGTGATGGC,0.45
23,TTGAACACGTGCTGGT,-0.11
24,TGTAACACGTGTGAAG,0.03
25,TTGGTCACGTGAGCCT,0.26
26,GAAGGCACGTGTTATT,0.04

row,Sequence,relative binding free energy [kcal/mol]
1,AACTTCACGTGAGGGG,0.45
2,TGAATCACGTGGGTGA,-0.05
3,TATAGCACGTGTGATA,0
4,TTTTTCACGTGCTGCG,0.3
5,AGTATCACGTGAAGGC,0.3
6,AGGCTCACGTGAGGAG,0.17
7,GGTATCACGTGTTATA,0.05
8,TGTTGCACGTGCAGAG,-0.09
9,GGTTGCACGTGGATGC,0.03
10,GTCGTCACGTGCTTGT,0.1
11,AGGCTCACGTGTGTGC,0.29
12,AAATGCACGTGTAAGG,0.11
13,GTCGTCACGTGCTTGG,0.11
14,GTTTTCACGTGTTTAC,0.31
15,TAACTCACGTGGGAGT,0.22
16,TAACTCACGTGTTTTT,0.16
17,TACGTCACGTGAGGTA,0.27
18,GTTATCACGTGCTGGG,0.32
19,TAGCACACGTGTTGTA,0.06
20,TGGAGCACGTGTTGTG,-0.11
21,GCGGGCACGTGGGACG,-0.18
22,GGGTTCACGTGAGTCA,0.31
23,AGTGTCACGTGAAGAT,0.07
24,TTGGACACGTGATGAA,0.12
25,AGGATCACGTGTATTT,0.12
26,ACGTGCACGTGTTAGT,-0.19

row,Sequence,relative binding free energy [kcal/mol]
1,TGTAGCACGTGTATCG,0.05
2,CTGAGCACGTGTGGTG,-0.06
3,TTAGGCACGTGCACGT,-0.15
4,GTTTTCACGTGGTAAT,0.27
5,GGTTGCACGTGGTAGG,-0.06
6,TTGTCCACGTGGTGGC,-0.03
7,GAGGGCACGTGGCGGT,-0.05
8,TATGTCACGTGGAATC,0.32
9,TTGCGCACGTGTGCTG,-0.24
10,AAAGACACGTGTGTAT,-0.01
11,CTGCTCACGTGTTGGG,0.19
12,TGTATCACGTGGGCGC,0.06
13,TTGTTCACGTGTAGGG,0.28
14,TCATGCACGTGTATAT,-0.02
15,CGTCTCACGTGGTGTG,0
16,TATGGCACGTGTGCGC,-0.09
17,GGATACACGTGTATGT,0.06
18,AGGTGCACGTGCTTAA,0.03
19,GATAGCACGTGGTTTA,0.06
20,GATATCACGTGTGGTG,0.24
21,TGGTCCACGTGTTGAG,0.06
22,CAGGTCACGTGAGGAG,0.32
23,TAGTGCACGTGCTTTG,-0.22
24,TTGCGCACGTGATGAG,0.07
25,TTCTGCACGTGGTCTG,-0.01
26,TGGAGCACGTGTAGAG,-0.16

row,Sequence,relative binding free energy [kcal/mol]
1,TCATACACGTGTGTTT,0.03
2,TGTAGCACGTGATTTG,0.08
3,GATTACACGTGGGTGT,0.13
4,AATTTCACGTGGAAGA,0.43
5,TGGCGCACGTGGTTAA,-0.18
6,GGTGCCACGTGTTTGT,0
7,TTGTGCACGTGGTTGA,-0.03
8,GTTTGCACGTGAGCGA,0.13
9,GAGGGCACGTGTTAGC,-0.05
10,TTTAGCACGTGGAGGC,-0.13
11,GTTCGCACGTGTGGAT,0.06
12,TCTTTCACGTGTTGGG,0.29
13,TAGATCACGTGTTGGT,0.11
14,TAGAGCACGTGACTGT,0.04
15,TAAAGCACGTGCGGGT,-0.17
16,TTATGCACGTGGTTTT,-0.03
17,TTGAGCACGTGTGTCG,-0.03
18,AGAAGCACGTGGTGCG,-0.03
19,GTTAACACGTGGCTTG,-0.03
20,AATTGCACGTGTATTC,0.11
21,TTGAACACGTGAAGGA,0.28
22,TTAGGCACGTGAAATA,0.08

# Source: the BET-seq Pho4 binding data (Le et al. 2018)
